Measurements from PubChem BioAssay AID485297 (National Center for Advancing Translational Sciences (NCATS), 2010).
In all, about 320,000 compounds went through this assay and about 9,100 (2.8%) were called active. Inconclusive means that the source gave no clear call. Such entries were picked first, then a sample of the others. Calls come from the whole dose curve; as a rule, active = well fitted activation curve with a large enough effect; inconclusive = small, poorly fitted or top-dose-only effect; inactive = no such curve, though single readings can be large or run the other way. A potency beside an inconclusive call is a rough fit, not a confirmed value.

experiment: qHTS Assay for Rab9 Promoter Activators; conditions: Huh7 Rab9 promoter-luciferase reporter, luminescence, 24 h; series mostly up to 9.22 µM; note: nearly all actives have a fitted effect of over 60% in size
Procedure, shortened: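 Steps: seed 1500 Huh7 Rab9-luc cells per well, rest 2 h at 37 °C; add compound in DMSO; incubate 24 h; add luciferase reagent, 10 min ambient; read luminescence.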
Potency is the fitted concentration of half-maximal effect; tags give direction and shape of the fitted curve.

Potency, inactive:
CCCn1c(SCC(=O)c2cc(C)n(-c3cc(C)on3)c2C)n[nH]c1=O, OCC1(Cc2ccccc2F)CCCN(Cc2c(F)ccc(F)c2F)C1 (stereo not given), Cc1cc([N+](=O)[O-])nn1CCCC(=O)Nc1cc(Cl)ccc1Cl, COC(=O)COc1cccc(NC(=O)C(c2ccccc2)c2ccccc2)c1, Cn1nc(-c2ccc(C(=O)Nc3ccc(F)cc3)cc2)c2ccccc2c1=O, CC(=O)c1ccc(S(=O)(=O)NCc2ccc(C(=O)N(C)CC(=O)Nc3cccc(F)c3)cc2)cc1, Cc1cc(C)nc(SCNC(=O)c2ccccc2)n1, O=C(COC(=O)Cc1ccsc1)Nc1ccc(Cl)cn1, Cc1ccc(-c2noc(CSc3nnc(-c4ccncc4)n3-c3ccc(F)cc3)n2)cc1, CCC(CC)NC(=O)/C=C/c1ccccc1Cl, O=C(c1ccc(NC(=O)C(c2ccccc2)c2ccccc2)cc1)c1ccc(C(=O)O)c(C(=O)O)c1, N/C(=N\S(=O)(=O)c1cccs1)c1ccccc1, CCOC(=O)c1ccc(NC(=O)c2ccc3c(c2)C(=O)N(CC2CCCO2)C3=O)cc1 (stereo not given), Cc1ccc(-c2nc3cccnc3s2)cc1NS(=O)(=O)c1ccc2c(c1)OCCO2, Cc1ccc(S(=O)(=O)N(CC(=O)Nc2ccc(C(N)=O)cc2)C(=O)N2CCN(C)CC2)cc1, CCOC(=O)c1c(C)nc2c(c1-c1ccccc1)C(=O)c1ccccc1-2, Nc1nonc1-n1nnc(C(=O)N/N=C/c2ccncc2)c1-c1ccccc1, C=CCn1c(Cc2ccccc2)nc2c(cnn2-c2ccccc2)c1=O, CCOc1[nH]n(-c2ccccc2)c(=O)c1C=NCC(=O)OC, O=C(NC1CCSc2ccccc21)c1cccc(Cl)c1 (stereo not given), Cn1c(C(=O)O)c(CC(=O)NCC2COc3ccccc3O2)c2ccccc21 (stereo not given), COc1ccc(C(CNC(=O)COc2cccc(C(F)(F)F)c2)N2CCCC2)cc1 (stereo not given)

Potency, inconclusive:
COc1ccc(/C=C/C(=O)Nc2cccnc2)cc1OC 4.47 µM [activator, partial curve], Cc1ccccc1Cn1cc(NC(=O)c2nc3ncccn3n2)cn1 3.55 µM [activator, single point], Cc1ccc(SCC(=O)Nc2ccc(-c3nc4ccccc4[nH]3)cc2)cc1 0.631 µM [activator, full curve], COc1cc(CN2CC(C)CC(C)C2)cc([N+](=O)[O-])c1O (stereo not given) 1.26 µM [activator, single point], CCCc1cc(C(=O)Nc2cccc([N+](=O)[O-])c2)cs1 3.55 µM [activator, partial curve], O=C(NCc1csc(-c2cccs2)n1)C1CCC1 3.55 µM [activator, single point], CN(C)S(=O)(=O)c1cccc(-n2sc3ccccc3c2=O)c1 3.55 µM [activator, single point], CCCNc1ccc(C(=O)OCC)cc1[N+](=O)[O-] 5.62 µM [activator, single point], CN(C)CCOCCSc1ccc(Cl)cc1 1.26 µM [activator, single point], Cc1ccc(C2C=NN(c3ccccc3)C2=O)cc1 (stereo not given) 3.98 µM [activator, single point], COc1ccc(-c2noc(-c3ccc(Cl)cc3)n2)cc1 2.24 µM [activator, single point], Cc1ccc(C2=NC3(CCCCC3)NC2=S)cc1 5.62 µM [activator, single point], O=C1CN(C(=O)/C=C/c2ccc(Cl)cc2Cl)CCN1 3.16 µM [activator, partial curve], O=C(CNc1ccccc1)Nc1ccc(F)cc1 3.98 µM [activator, partial curve], O=C(Nc1ccc(NC(=O)C2CCCCC2)nc1)c1cccs1 2.24 µM [activator, partial curve], O=C(Nc1ccc(NC(=O)c2ccco2)c(Cl)c1)c1ccccc1 3.55 µM [activator, single point], O=C(/C=C/c1ccco1)Nc1cccc(-c2nc3ccccc3[nH]2)c1 3.55 µM [activator, single point], CS(=O)(=O)N1CCc2cc(C(=O)Nc3ccccc3Cl)ccc21 4.47 µM [activator, single point], Cc1c(C(=O)Nc2ccc3c(c2)CCC3)cccc1[N+](=O)[O-] 5.62 µM [activator, single point], O=C(Nc1ccc2c(c1)Cc1ccccc1-2)c1ccc(Br)o1 3.55 µM [activator, single point], CCOC(=O)c1cc2cc(C)ccc2[nH]1 3.16 µM [activator, partial curve], O=C(CSCc1cccc(F)c1)N1CCN(c2ccccc2)CC1 3.16 µM [activator, single point], COc1ccc(C(=O)CN2C(=O)c3ccccc3C2=O)c(OC)c1 6.31 µM [activator, single point], COC(=O)c1sc(NC(=O)c2oc3ccccc3c2C)nc1C 1.58 µM [activator, partial curve], O/N=C\c1cnc(N2CCN(c3ccccc3)CC2)s1 4.47 µM [activator, single point], CCCOc1ccc(/C=C/C(=O)N2CCOCC2)cc1 5.01 µM [activator, single point], O=C(OCC(=O)N1CCCCC1)c1c[nH]c2ccccc12 3.55 µM [activator, single point], Cc1[nH]c2ccccc2c1/C=N/Nc1ccc(F)cc1F 3.55 µM [activator, single point], O=C(OCc1csc(-c2ccccc2)n1)c1cccs1 5.01 µM [activator, single point], CCCCn1nnc(NC(=O)c2ccco2)n1 3.55 µM [activator, single point], COc1ccc(OC(=O)c2c(C)nn(-c3ccccc3)c2C)cc1 4.47 µM [activator, partial curve], C=CCSc1nnc(-c2cc3c(s2)-c2ccccc2CC3)o1 2.82 µM [activator, partial curve], COc1ccc2cc(-c3ccon3)ccc2c1 3.16 µM [activator, single point], O=C(Cn1c(NCCO)nc2ccccc21)NCCc1ccccc1 5.62 µM [activator, single point], CCOC(=O)c1ccc(NC(=O)N2CCOCC2)cc1 2.82 µM [activator, partial curve], O=C(Cc1ccc(Br)cc1)Nc1ncc([N+](=O)[O-])s1 3.55 µM [activator, single point], COc1cccc(NC(=O)C(Cc2ccccc2)n2cccc2)c1 (stereo not given) 3.98 µM [activator, single point], O=C(NNC(=S)Nc1ccccc1)c1ccc2ncccc2c1 6.31 µM [activator, single point], Cc1ccc(CSc2nnc(-c3ccccn3)n2C)cc1 2.82 µM [activator, partial curve], CC1CCCN(c2nc3ccsc3c(=O)s2)C1 (stereo not given) 3.16 µM [activator, partial curve], COC(=O)c1cnc(SCc2ccc(Cl)cc2)n1C 3.16 µM [activator, single point], CCN(CC)c1ccc(/C=C2\SC(N)=NC2=O)cc1 4.47 µM [activator, partial curve], O=C1CC(c2ccccc2Cl)=NN(c2ncnc3ccccc23)C1=O 3.16 µM [activator, partial curve]

Potency, active:
Nc1c(-c2ccc(Cl)cc2)cnn1-c1ccccc1 0.891 µM, CCOC(=O)c1c(SCC(=O)Nc2nccs2)nc(C)c(C)c1C 2.51 µM, Cc1cccc(OCCn2c(=O)sc3ccccc32)c1 2.82 µM, O=c1c2ccccc2nc2oc3ccccc3n12 1.58 µM, CC(C)(C)c1ccc(/C=C/C(=O)N2CCCCC2)cc1 1.58 µM, COC(=O)CSc1nc(-c2cccs2)ccc1C#N 2.24 µM, CC(=O)Nc1ccc(-c2nc3ccc(NC(C)=O)cc3o2)cc1 2 µM, Cn1c(-c2ccc(Br)o2)nc2cc(Br)ccc21 1.12 µM, CC(C)CC(=O)Nc1cc2nn(-c3ccccc3)nc2cc1Cl 1.41 µM, O=C(Nc1nnc(C2CC2)s1)C1COc2ccccc2O1 (stereo not given) 0.891 µM, CCC(=O)C1CCCN(C(=O)c2ccc3nc(-c4cccc(OC)c4)oc3c2)C1 (stereo not given) 1.58 µM, COc1ccc2nc(Nc3ccccc3OC)sc2c1 0.355 µM, O=C(CSc1nnc(NC(=O)c2ccccc2F)s1)NC1CCCC1 3.16 µM, Cc1cccc(NC(=O)c2cnc3ccccn3c2=O)c1 0.316 µM, CCOc1ccc(-n2nc3cc(C)c(N)cc3n2)cc1 0.447 µM
